Reference: the supplement of paper PMC3334620
The full ranking holds about 33,000 sequences; the median of “E-score (-0.5 to 0.5)” is about -0.017, and the highest 2% start at about 0.3. The list shows a part of the results.

Target: T1, Sut1 (UniProt P53032)
T1 sequence: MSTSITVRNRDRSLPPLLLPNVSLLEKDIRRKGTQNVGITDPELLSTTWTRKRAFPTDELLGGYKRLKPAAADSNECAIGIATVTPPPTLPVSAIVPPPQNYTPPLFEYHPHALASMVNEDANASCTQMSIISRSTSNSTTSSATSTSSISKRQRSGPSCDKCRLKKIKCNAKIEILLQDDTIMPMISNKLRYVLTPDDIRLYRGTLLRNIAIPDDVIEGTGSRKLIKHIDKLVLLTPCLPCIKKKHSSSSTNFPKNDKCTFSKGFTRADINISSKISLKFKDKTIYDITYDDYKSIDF
Assay: PBM E-score (8-mer binding enrichment) (E-score (-0.5 to 0.5)); higher = stronger / more preferred TF binding; most listed sequences are background and not binding sites
Conditions: protein concentration: 200 nM; construct: GST-full length
How it was run: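 E-scores (a modified Wilcoxon-Mann-Whitney statistic) were assigned by the Universal PBM Analysis Suite to every ungapped eight-base word pooled with its reverse complement. The input came from universal all-10-mer Agilent arrays made double-stranded by primer extension and probed with GST-tagged yeast transcription factors at about 100-200 nM. Fluorescent anti-GST detected bound protein, and masliner normalised the scans.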

Sequence	PBM E-score
CGATAAAG	0.0523
CTCCGTAC	0.331
AGTCATGA	0.131
ACCCAGCT	-0.205
ACGCCGGG	-0.0288
AGATCATG	-0.0252
AGCCAGAG	0.0568
AGGTCACC	-0.21
GACGTAGA	-0.31
CAATGTAG	0.0173
AATAATAC	0.202
AAGTGCAC	0.124
CCTGTCTC	-0.0672
GTGTACAC	-0.0363
TACAGGCA	0.085
AGGGCATA	-0.104
CGTGTTAC	-0.0234
GTGAGTAA	0.00333
GTCCTAAA	0.11
ACCGGGGG	-0.103
ACGTCGCC	-0.225
GTATAATA	0.249

Sequence	PBM E-score
ATTGATTA	0.223
ATTAAATC	0.191
ACCCTTTG	-0.151
AGTAGGGC	-0.198
CCACCAGG	-0.274
CGTTTTAC	0.0488
CTACGCCC	-0.276
CTATAAAC	0.268
AACGGGAT	-0.0812
TAGTTCGA	0.0733
TCCAACGA	-0.21
ACCGAAAC	0.132
CTAGATTA	0.189
CAGTACGA	-0.0772
CTTAGGGC	-0.139
GCGCGAAC	-0.0862
CAAAGTCG	0.0112
AGTGGTAG	-0.224
ATTGTGCC	0.0156
ATGGTAGG	0.0487
CCTAAACA	-0.163
ATATCCAA	0.158

Sequence	PBM E-score
TAGTCTAA	0.042
AATTGTTC	0.239
CCGAGCGC	0.163
TTCTCCAA	-0.0873
CGCTAACG	-0.00974
GCAAGGCC	-0.151
GCAAGTAC	-0.133
AATCGATC	-0.0774
AAGACAAG	0.0135
GAAAGGGC	0.00203
CGTGGGTA	-0.245
CTTGTCAC	-0.139
AGCATGAC	-0.147
AGATGTGG	-0.12
CTGAGTCC	0.0245
CACACTGA	-0.183
GTCGCCCA	-0.239
ATATAGGG	-0.126
AACCCGCC	-0.148
GTGATGTA	0.144
GGGAGACC	-0.235
GTACAGAA	0.0825

Sequence	PBM E-score
CTCACGCC	-0.154
GGTTAAAA	0.0081
TGCCTTAA	-0.149
CTACTACC	0.00978
ACACGTAA	0.135
AAACGACG	0.0276
GCCGGGAA	-0.172
AACCTAGG	0.00049
GATCCTGA	-0.0133
CCGAGGGC	-0.0115
CAGCATCC	-0.0618
TACCCCCA	-0.175
AGCCTTAC	-0.205
CGTGCTGA	-0.0837
GAGAACTA	0.0931
CACCCAAG	-0.135
TCATAGCA	-0.053
CAAGATCC	-0.0536
CGGGGCAG	-0.175
CCGACGAG	0.0455
CTTGAATC	0.0164
CTGGAGGA	-0.248

Sequence	PBM E-score
TGCGGTAA	-0.0328
CACGGCCA	-0.119
CCTATGCC	-0.289
GGAGGGGA	-0.307
GCCAACAA	0.0741
CCAGCAAG	-0.274
ACCGGTCC	0.0275
CCTCTGTA	-0.21
GACTAACA	0.124
AAGTCGTG	-0.00181
AGCAGACC	-0.0654
GAGGTAGC	-0.201
CGGTCACA	-0.102
ACAAAACG	0.244
AATAGTGT	0.269
AAGGCCTT	-0.268
GCATCCAA	-0.0982
CGACTACC	-0.0971
ATGCGACC	0.148
ATGGTTAA	-0.00798
CTTGTTAC	0.109
